The source of these data is US10358436B2, “Kinase inhibitors and method of treating cancer” (University Health Network, priority 2010, dated 2019).

Experiment in all cases: cells
The test system of assay [1] is A549 lung cancer cell line. To be noted: Homo sapiens, A549, 120 h, read-out: Cell Line GI50 Range A-549.
The test system of assay [2] is SW620 colon cancer cell line. To be noted: Homo sapiens, SW-620, 120 h, read-out: Cell Line GI50 Range SW-620.
Assay [3] deals with HCC1954 basal breast cancer cell line. To be noted: Homo sapiens, HCC1954, 120 h.
Assay [4] has as its system MDA-MB-468 basal breast cancer cell line. To be noted: Homo sapiens, MDA-MB-468, 120 h, read-out: Cell Line GI50 Range MDA-MB-468.
In assay [5] the test system is MCF-7 luminal breast cancer cell line. To be noted: Homo sapiens, MCF7, 120 h.
Where [6] appears, read: read-out: Cell Line GI50 Range HCC-1954, HCC1954 basal breast cancer cell line, SRB assay, 5 days.
The mark [7] stands for this setting: read-out: Cell Line GI50 Range MCF-7, MCF-7 luminal breast cancer cell line, SRB assay, 5 days.
The mark [8] stands for this setting: read-out: Cell Line GI50 Range HCC-1954.
[9] abbreviates: read-out: Cell Line GI50 Range MCF-7.

The structures appear in SMILES notation. Structures can show the parent of a compound that is named as a salt. Where two headings read alike, the source gives them in different places.

One may read the GI50 as the concentration at which growth is held to half of that of the control. On to `O=C1Nc2ccccc2[C@]12C[C@H]2c1ccc2c(/C=C/c3ccc(CN4CCOCC4)c(F)c3)n[nH]c2c1` [Example A200, (1R,2S)-(E)-2-(3-(3-fluoro-4-(morpholinomethyl)styryl)-1H-indazol-6-yl)spiro[cyclopropane-1,3′-indolin]-2′-one 2,2,2-trifluoroacetate], for which the GI50 in assay [1] is less than 100 nM; in assay [2], less than 100 nM; in assay [3] (setting [6]), 1000 to 10000 nM; in assay [4], less than 100 nM; in assay [5] (setting [7]), more than 10000 nM.

Regarding `O=C1Nc2ccc(F)cc2[C@]12C[C@H]2c1ccc2c(/C=C/c3ccc(N4CCOCC4)nc3)n[nH]c2c1` (relative stereo) [Example A207, (1R*,2S*)-5′-fluoro-2-(3-((E)-2-(6-morpholinopyridin-3-yl)vinyl)-1H-indazol-6-yl)spiro[cyclopropane-1,3′-indolin]-2′-one 2,2,2-trifluoroacetate], the GI50 in assay [1] was less than 100 nM; in assay [2], less than 100 nM; in assay [3] (setting [6]), 1000 to 10000 nM; in assay [4], 100 to 1000 nM; in assay [5] (setting [7]), 100 to 1000 nM.

Regarding `COc1ccc2c(c1)[C@]1(C[C@H]1c1ccc3c(-c4ccc(OCCN5CCOCC5)cc4)n[nH]c3c1)C(=O)N2` [Example A68, (1R,2S)-5′-methoxy-2-(3-(4-(2-morpholinoethoxy)phenyl)-1H-indazol-6-yl)spiro[cyclopropane-1,3′-indolin]-2′-one 2,2,2-trifluoroacetate salt], the GI50 in assay [1], in assay [2], in assay [3] (setting [8]), in assay [4] and in assay [5] (setting [9]) was less than 100 nM each time.

Regarding `COc1ccc2c(c1)[C@]1(C[C@H]1c1ccc3c(I)n[nH]c3c1)C(=O)N2` [Example A7, (1R,2S)-2-(3-iodo-1H-indazol-6-yl)-5′-methoxyspiro[cyclopropane-1,3′-indolin]-2′-one], the GI50 in assay [1], in assay [2], in assay [3] (setting [8]), in assay [4] and in assay [5] (setting [9]) was 100 to 1000 nM each time.

As to `COc1ccc2c(c1)[C@]1(C[C@H]1c1ccc3c(-c4ccc(N5CCC(N(C)C)CC5)cc4)n[nH]c3c1)C(=O)N2` (relative stereo) [Example A119, (1R*,2S*)-2-(3-(4-(4-(dimethylamino)piperidin-1-yl)phenyl)-1H-indazol-6-yl)-5′-methoxyspiro[cyclopropane-1,3′-indolin]-2′-one 2,2,2-trifluoroacetate], the GI50 in assay [1] is less than 100 nM; in assay [2], less than 100 nM; in assay [3] (setting [6]) it was 100 to 1000 nM; in assay [4] it was less than 100 nM; in assay [5] (setting [7]), less than 100 nM.

As for `COc1ccc2c(c1)[C@]1(C[C@H]1c1ccc3c(/C=C/c4csc(CN5CCOCC5)c4)n[nH]c3c1)C(=O)N2` (relative stereo) [Example A184, (1R*,2S*)-5′-methoxy-2-(3-((E)-2-(5-(morpholinomethyl)thiophen-3-yl)vinyl)-1H-indazol-6-yl)spiro[cyclopropane-1,3′-indolin]-2′-one 2,2,2-trifluoroacetate], the GI50 in assay [1] is less than 100 nM; in assay [2], less than 100 nM; in assay [3] (setting [8]), more than 10000 nM; in assay [4], less than 100 nM; in assay [5] (setting [9]) it was 100 to 1000 nM.

In the case of `COc1ccc2c(c1)[C@]1(C[C@H]1c1ccc3c(-c4ccc(OCCn5ccnc5)cc4)n[nH]c3c1)C(=O)N2` [Example A108, (1R,2S)-2-(3-(4-(2-(1H-imidazol-1-yl)ethoxy)phenyl)-1H-indazol-6-yl)-5′-methoxyspiro[cyclopropane-1,3′-indolin]-2′-one 2,2,2-trifluoroacetate], the GI50 lay in the range of 100 to 1000 nM in assay [1]; 1000 to 10000 nM in assay [2]; 1000 to 10000 nM in assay [3] (setting [8]); 100 to 1000 nM in assay [4]; 100 to 1000 nM in assay [5] (setting [9]).

Take `CN1CCc2cc(/C=C/c3n[nH]c4cc([C@@H]5C[C@@]56C(=O)Nc5ccccc56)ccc34)ccc2C1` [Example A74, (1R,2S)-2-(3-((E)-2-(2-methyl-1,2,3,4-tetrahydroisoquinolin-6-yl)vinyl)-1H-indazol-6-yl)spiro[cyclopropane-1,3′-indolin]-2′-one 2,2,2-trifluoroacetate salt]: the GI50 in assay [1] is less than 100 nM; in assay [2], less than 100 nM; in assay [3] (setting [8]), 1000 to 10000 nM; in assay [4], less than 100 nM; in assay [5] (setting [9]), 1000 to 10000 nM.

As for `O=C1Nc2ccccc2[C@]12C[C@H]2c1ccc2c(/C=C/c3ccc(OCCN4CCOCC4)cc3)n[nH]c2c1` [Example A204, (1R,2S)-(E)-2-(3-(4-(2-morpholinoethoxy)styryl)-1H-indazol-6-yl)spiro[cyclopropane-1,3′-indolin]-2′-one 2,2,2-trifluoroacetate], the GI50 in assay [1] was less than 100 nM; in assay [2] it was less than 100 nM; in assay [3] (setting [6]), more than 10000 nM; in assay [4] it was less than 100 nM; in assay [5] (setting [7]), 1000 to 10000 nM.

Take `O=C1Nc2ccccc2[C@]12C[C@H]2c1ccc2c(/C=C/c3csc(CN4CCOCC4)n3)n[nH]c2c1` [Example A77, (1R,2S)-2-(3-((E)-2-(2-(morpholinomethyl)thiazol-4-yl)vinyl)-1H-indazol-6-yl)spiro[cyclopropane-1,3′-indolin]-2′-one 2,2,2-trifluoroacetate salt]: the GI50 was 100 to 1000 nM in assay [1]; 100 to 1000 nM in assay [2]; 1000 to 10000 nM in assay [3] (setting [8]); 100 to 1000 nM in assay [4]; 1000 to 10000 nM in assay [5] (setting [9]).

With `COc1ccc2c(c1)[C@]1(C[C@H]1c1ccc3c(/C=C/c4ccc(CN5CCOCC5)cc4)n[nH]c3c1)C(=O)N2C` [Example A102, (1R,2S)-(E)-5′-methoxy-1′-methyl-2-(3-(4-(morpholinomethyl)styryl)-1H-indazol-6-yl)spiro[cyclopropane-1,3′-indolin]-2′-one hydrochloride], the GI50 in assay [1] is less than 100 nM; in assay [2] it was 100 to 1000 nM; in assay [3] (setting [8]) it was more than 10000 nM; in assay [4], less than 100 nM; in assay [5] (setting [9]), 1000 to 10000 nM.

For `COc1ccc2c(c1)[C@]1(C[C@H]1c1ccc3c(-c4ccc5c(c4)CN(C)CC5)n[nH]c3c1)C(=O)N2` [Example A70, (1R,2S)-5′-methoxy-2-(3-(2-methyl-1,2,3,4-tetrahydroisoquinolin-7-yl)-1H-indazol-6-yl)spiro[cyclopropane-1,3′-indolin]-2′-one 2,2,2-trifluoroacetate salt], the GI50 fell in the range of 100 to 1000 nM in assay [1]; 1000 to 10000 nM in assay [2]; 1000 to 10000 nM in assay [3] (setting [8]); 100 to 1000 nM in assay [4]; 1000 to 10000 nM in assay [5] (setting [9]).

Turning to `COc1ccc2c(c1)[C@]1(C[C@H]1c1ccc3c(/C=C/c4ccc(CN5CCCOCC5)cc4)n[nH]c3c1)C(=O)N2` [Example A73, (1R,2S)-(E)-2-(3-(4-((1,4-oxazepan-4-yl)methyl)styryl)-1H-indazol-6-yl)-5′-methoxyspiro[cyclopropane-1,3′-indolin]-2′-one 2,2,2-trifluoroacetate salt], the GI50 was less than 100 nM in assay [1]; less than 100 nM in assay [2]; 1000 to 10000 nM in assay [3] (setting [8]); less than 100 nM in assay [4]; 1000 to 10000 nM in assay [5] (setting [9]).
